The test system of assay [1] is RAW-Dual. In words: IRF Lucia reporter activity, fold change vs agonist alone; cytotoxicity flag (confluency mask): cytotoxic (confluency <70% of control); higher = enhanced IRF activity. The essentials:
(§1)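 Cytotoxic wells were those whose IncuCyte confluency was below 70% of agonist controls in both mask sets. The cells were RAW-Dual macrophages at 50,000 cells/well in DMEM on 384-well plates, dosed with 50 nL of library stock by pin tool, stimulated with a PRR agonist 1 h later, and kept at 37 °C, 5% CO2 for 20 hours. IRF and NF-κB reporter activity, as fold change over agonist-alone wells, came from supernatant read by QuantiLuc luminescence and QuantiBlue absorbance, respectively.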

The subject of assay [2] is RAW-Dual. In words: IRF Lucia reporter activity, fold change vs agonist alone; cytotoxicity flag (confluency mask): not cytotoxic; higher = enhanced IRF activity. The essentials:
as §1

The subject of assay [3] is RAW-Dual. Nature of the assay: IRF Lucia reporter activity, fold change vs agonist alone; higher = enhanced IRF activity. The note with it: agonist: MPLA (TLR4) […]. The essentials: as §1
The mark [4] stands for this setting: agonist: 3'3'-cGAMP (STING) 10 ug/mL.
[5] abbreviates: library stock concentration (final ~1000-fold dilution): 10 mM, cytotoxicity flag (confluency mask): not cytotoxic.
Where [6] appears, read: library stock concentration (final ~1000-fold dilution): 10 mM, cytotoxicity flag (confluency mask): cytotoxic (confluency <70% of control).

Values joined by “and” are separate entries in the source; they are usually repeats but may differ in a detail not shown here. Equal values may be shown once. The full ranking holds about 2,900 compounds; the median of “IRF Lucia reporter activity, fold change vs agonist alone” is about 0.9, and the highest 2% start at about 2.8. The list shows a part of the results.

The values that follow come from the supplement of paper PMC10037445.

Turning to `C=CC(=O)Nc1cc(Nc2nccc(-c3cn(C4CC4)c4ccccc34)n2)c(OC)cc1N(C)CCN(C)C` (library stock concentration (final ~1000-fold dilution): 10 mM), the “IRF Lucia reporter activity” value was 0.0197 in assay [1] (setting [4]) and 0.0818 in assay [1] (agonist: LPS (TLR4) 0.1 ug/mL). Turning to `Cc1ccc(C(C)C)cc1O` (library stock concentration (final ~1000-fold dilution): 10 mM), the figures for the “IRF Lucia reporter activity” value in assay [2] (setting [4]) and in assay [2] (agonist: LPS (TLR4) 0.1 ug/mL) were 1.18 and 1.08, respectively. `Cc1ccc(C(C)C)cc1O`: in assay [3] (setting [5]), the “IRF Lucia reporter activity” value came out at 1.26. As to `Cc1cc[nH]n1`, the “IRF Lucia reporter activity” value in assay [3] (setting [5]) worked out at 1.02. Take `Cc1cc[nH]n1` (library stock concentration (final ~1000-fold dilution): 10 mM): the “IRF Lucia reporter activity” value in assay [2] (setting [4]) came out at 1.02; in assay [2] (agonist: LPS (TLR4) 0.1 ug/mL), 1.39. Turning to `COc1ccc(-c2ccc3ncc4c(c3c2)n(-c2ccc(N3CCNCC3)c(C(F)(F)F)c2)c(=O)n4C)cn1.O=C(O)/C=C\C(=O)O`, the “IRF Lucia reporter activity” value in assay [3] (setting [6]) is 0.0296. On to `COc1ccc(-c2ccc3ncc4c(c3c2)n(-c2ccc(N3CCNCC3)c(C(F)(F)F)c2)c(=O)n4C)cn1.O=C(O)/C=C\C(=O)O` (library stock concentration (final ~1000-fold dilution): 10 mM), for which the figures for the “IRF Lucia reporter activity” value in assay [1] (setting [4]) and in assay [1] (agonist: LPS (TLR4) 0.1 ug/mL) were 0.0168 and 0.0224, respectively. In the case of `Cl.O=C1CN2Cc3c(ccc(Cl)c3Cl)NC2=N1`, the “IRF Lucia reporter activity” value in assay [3] (setting [5]) was 1.08. With `Cl.O=C1CN2Cc3c(ccc(Cl)c3Cl)NC2=N1` (library stock concentration (final ~1000-fold dilution): 10 mM), the figures for the “IRF Lucia reporter activity” value in assay [2] (setting [4]) and in assay [2] (agonist: LPS (TLR4) 0.1 ug/mL) were 1.05 and 1.04, respectively. For the compound `COc1ncc(-c2cc(-c3ncc(CN4CC(C)OC(C)C4)o3)c3cn[nH]c3c2)cc1NS(C)(=O)=O` (stereo unspecified) (library stock concentration (final ~1000-fold dilution): 10 mM), the “IRF Lucia reporter activity” value stood at 0.865 in assay [1] (setting [4]) and 4.5 in assay [1] (agonist: LPS (TLR4) 0.1 ug/mL).

As for `Cc1cc(-c2ccccc2)nnc1NCCN1CCOCC1.Cl.Cl`, in assay [3] (setting [5]), the “IRF Lucia reporter activity” value was determined as 0.633. Consider `Cc1cc(-c2ccccc2)nnc1NCCN1CCOCC1.Cl.Cl` (library stock concentration (final ~1000-fold dilution): 10 mM), for which the “IRF Lucia reporter activity” value is 1.02 in assay [2] (setting [4]) and 1.04 in assay [2] (agonist: LPS (TLR4) 0.1 ug/mL). For `CC(C)=CCC[C@@H](C)CCO` (library stock concentration (final ~1000-fold dilution): 10 mM) the same measures were 1.18 and 1.1. In the case of `CCC(Nc1ncnc2[nH]cnc12)c1nc2cccc(F)c2c(=O)n1-c1ccccc1` (stereo unspecified) (library stock concentration (final ~1000-fold dilution): 10 mM), the “IRF Lucia reporter activity” value in assay [2] (setting [4]) was 0.775; in assay [2] (agonist: LPS (TLR4) 0.1 ug/mL), 0.921. Turning to `CCC(Nc1ncnc2[nH]cnc12)c1nc2cccc(F)c2c(=O)n1-c1ccccc1` (stereo unspecified), the “IRF Lucia reporter activity” value in assay [3] (setting [5]) came to 1.08. Still for that read-out and setting: as for `COc1ccc(C2CNC(=O)C2)cc1OC1CCCC1` (stereo unspecified), the figure is 0.784. For `COc1ccc(C2CNC(=O)C2)cc1OC1CCCC1` (stereo unspecified) (library stock concentration (final ~1000-fold dilution): 10 mM), the “IRF Lucia reporter activity” value came to 1.03 in assay [2] (setting [4]) and 0.987 in assay [2] (agonist: LPS (TLR4) 0.1 ug/mL).

Turning to `O=c1c(O)c(-c2ccc(O)cc2O)oc2cc(O)cc(O)c12` (library stock concentration (final ~1000-fold dilution): 10 mM), the entries for the “IRF Lucia reporter activity” value in assay [2] (setting [4]) and in assay [2] (agonist: LPS (TLR4) 0.1 ug/mL) were 0.43 and 0.626, respectively. Turning to `Cc1ccccc1C(OCCN(C)C)c1ccccc1.O=C(O)CC(O)(CC(=O)O)C(=O)O` (stereo unspecified), the “IRF Lucia reporter activity” value in assay [3] (setting [5]) amounted to 1.01. Consider `Cc1ccccc1C(OCCN(C)C)c1ccccc1.O=C(O)CC(O)(CC(=O)O)C(=O)O` (stereo unspecified) (library stock concentration (final ~1000-fold dilution): 10 mM), for which the entries for the “IRF Lucia reporter activity” value in assay [2] (setting [4]) and in assay [2] (agonist: LPS (TLR4) 0.1 ug/mL) were 0.699 and 0.813, respectively. For `O=C(O)C=Cc1ccc(Cn2ccnc2)cc1`, the “IRF Lucia reporter activity” value in assay [3] (library stock concentration (final ~1000-fold dilution): 10 mM water, cytotoxicity flag (confluency mask): not cytotoxic) came to 1.33.

Turning to `O=C(O)C=Cc1ccc(Cn2ccnc2)cc1` (library stock concentration (final ~1000-fold dilution): 10 mM water), the “IRF Lucia reporter activity” value in assay [2] (setting [4]) stood at 1.4; in assay [2] (agonist: LPS (TLR4) 0.1 ug/mL) it was 1.03. Turning to `CC(=O)Nc1nc(C)c(-c2ccc(Cl)c(S(=O)(=O)NCCO)c2)s1` (library stock concentration (final ~1000-fold dilution): 10 mM), the “IRF Lucia reporter activity” value in assay [2] (setting [4]) is 0.0873; in assay [2] (agonist: LPS (TLR4) 0.1 ug/mL) it was 0.813. Turning to `CC(=O)Nc1nc(C)c(-c2ccc(Cl)c(S(=O)(=O)NCCO)c2)s1`, the “IRF Lucia reporter activity” value in assay [3] (setting [5]) was found to be 0.756.

`Cl.OC(c1cc(C(F)(F)F)nc2c(C(F)(F)F)cccc12)C1CCCCN1` (stereo unspecified) (library stock concentration (final ~1000-fold dilution): 10 mM): the entries for the “IRF Lucia reporter activity” value in assay [1] (setting [4]) and in assay [1] (agonist: LPS (TLR4) 0.1 ug/mL) were 0.49 and 1.58, respectively. On to `Cl.OC(c1cc(C(F)(F)F)nc2c(C(F)(F)F)cccc12)C1CCCCN1` (stereo unspecified), for which the “IRF Lucia reporter activity” value in assay [3] (setting [6]) is 1.67.

In the case of `COc1ccc2cc(C(C)C(=O)O)ccc2c1` (stereo unspecified) (library stock concentration (final ~1000-fold dilution): 10 mM), the “IRF Lucia reporter activity” value in assay [2] (setting [4]) was 0.987 and 1.02; in assay [2] (agonist: LPS (TLR4) 0.1 ug/mL) it was 1.13 and 0.985.

Take `Cc1nccn1CC1CCc2c(c3ccccc3n2C)C1=O.Cl.O.O` (stereo unspecified): the “IRF Lucia reporter activity” value in assay [3] (setting [6]) stood at 0.98. Turning to `Cc1nccn1CC1CCc2c(c3ccccc3n2C)C1=O.Cl.O.O` (stereo unspecified) (library stock concentration (final ~1000-fold dilution): 10 mM), the figures for the “IRF Lucia reporter activity” value in assay [1] (setting [4]) and in assay [1] (agonist: LPS (TLR4) 0.1 ug/mL) were 0.976 and 1.11, respectively.
